Test [1] relates to CDK12-cyclin K or CDK13-cyclin K complexes. The note with it: Jurkat cells, 1 μM compound, 6 hrs; lysate with 1 μM THZ1-biotin.
For the next test, the target named is T1, CDK7-cyclin H complexes (Homo sapiens, UniProt P50613).
T1 construct: endogenous in cells; host or cells: Jurkat
The test can be described thus: THZ1-biotin pull-down from treated Jurkat cells, western blot for cyclin H. The note with it: 1 μM compound, 6 hrs, lysate with 1 μM THZ1-biotin. It is filed as cell-based. (A western blot detects proteins with antibodies after separation by electrophoresis.)

As for `C=CC(=O)Nc1ccc(O[C@@H]2CCC[C@@H](Nc3ncc(Cl)c(-c4c[nH]c5ccccc45)n3)C2)cc1` [BSJ-01-033, N-(4-((1R,3R)-3-(5-chloro-4-(1H-indol-3-yl)pyrimidin-2-ylamino)cyclohexyloxy)phenyl)acrylamide], the “Cyclin K pulldown with THZ1-biotin (binding of intracellular CDK12/13-cyclin K complexes)” value (shortened to “Cyclin K pulldown with THZ1-biotin”) in test [1] is recorded as “loss in cyclin K pulldown”.
For the compound `CN(C)C/C=C/C(=O)Nc1ccc(C(=O)N2CCC[C@@H](Nc3ncc(Cl)c(-c4c[nH]c5ccccc45)n3)C2)nc1` [BSJ-01-202, (E)-N-(6-(3-(5-chloro-4-(1H-indol-3-yl)pyrimidin-2-ylamino)piperidine-1-carbonyl)pyridin-3-yl)-4-(dimethylamino)but-2-enamide], in test [1], the “Cyclin K pulldown with THZ1-biotin” value is given as “loss in cyclin K pulldown”.
`CN(C)C/C=C/C(=O)Nc1ccc(O[C@@H]2CCC[C@@H](Nc3ncc(Cl)c(-c4c[nH]c5ccccc45)n3)C2)cc1` [BSJ-01-175, (E)-N-(4-((1R,3R)-3-(5-chloro-4-(1H-indol-3-yl)pyrimidin-2-ylamino)cyclohexyloxy)phenyl)-4-(dimethylamino)but-2-enamide]: the “Cyclin H pulldown with THZ1-biotin (binding of intracellular CDK7-cyclin H complexes)” value on CDK7-cyclin H complexes was “not CDK7-cyclin H”. The “Cyclin K pulldown with THZ1-biotin” value in test [1] is on record as “loss in cyclin K pulldown”.

The record behind these values is patent US11932625B2, “Inhibitors of cyclin-dependent kinase 12 (CDK12) and uses thereof” (Dana-Farber Cancer Institute, Inc., priority 2016, dated 2024).
